Laboratory results as given in PMC12342132, “Mechanistic insights into the GEF activity of the human MON1A/CCZ1/C18orf8 complex” (Protein & Cell, 2025).

Key:
[1] = biological target: T1, MON1A/CCZ1/C18orf8 complex (purified, used for SEC and MALS) (human, UniProt Q86VX9; P86791; Q96DM3); experiment: SEC-MALS; MALS measurement of the purified MON1A/CCZ1/C18orf8/Rab7A (1–181) T22N quaternary complex in solution; conditions: both partners purified
T1 construct: human MON1A; human CCZ1; Methods are in the supplement; copies: 1 + 1 + 1

CCZ1 (1–482) = biological target: T2, CCZ1 (1–482) (human, UniProt P86791 1-482); experiment: cryo-EM structure; MON1A (235–652)/CCZ1 (1–482)/C18orf8 (1–657)/Rab7A (1–181) T22N complex, 3.41 Å; conditions: both partners purified
T2 construct: human CCZ1, residues 1-482; Subunit of m3, written alone for the pairwise contacts in the structure
T2 sequence (looked up): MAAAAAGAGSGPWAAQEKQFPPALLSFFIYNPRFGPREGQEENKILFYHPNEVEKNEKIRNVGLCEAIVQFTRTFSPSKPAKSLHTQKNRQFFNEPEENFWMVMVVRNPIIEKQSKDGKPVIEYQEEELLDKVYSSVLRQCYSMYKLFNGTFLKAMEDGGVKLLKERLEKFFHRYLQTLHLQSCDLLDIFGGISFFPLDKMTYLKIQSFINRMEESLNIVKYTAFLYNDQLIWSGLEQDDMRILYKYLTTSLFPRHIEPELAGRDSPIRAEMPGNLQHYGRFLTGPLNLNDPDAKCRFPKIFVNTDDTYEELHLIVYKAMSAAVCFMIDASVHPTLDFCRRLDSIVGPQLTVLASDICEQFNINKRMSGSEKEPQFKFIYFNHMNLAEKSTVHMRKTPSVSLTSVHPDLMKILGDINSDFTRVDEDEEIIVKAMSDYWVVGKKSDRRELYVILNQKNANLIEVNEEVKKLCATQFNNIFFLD

stoichiometry N [1]: 1 | binding result (CCZ1 (1–482)): binds
B1: Rab7A ([…]) T22N (domain or fragment)
chain: not shown
notes: human Rab7A […] (C-terminal membrane-associating region […] deleted) with T22N; In the Cryo-EM structure GDP and Mg2+ are missing from Rab7A; also called T22N mutant of Rab7A ([…]); source: E. coli cells, purified
